The other results are listed elsewhere or left out.

For one assay, the system named is HSkMC. Description: cytotoxicity call (relative viability < 0.9). The settings on record: 10 µM.
For a further assay, the system named is S. aureus RN4220. Description: growth inhibition call (relative growth <= 0.2). The settings on record: 50 µM.

`C[C@@H]1CCCCO[C@@H](CN(C)C(=O)Nc2ccc(F)cc2)[C@H](C)CN([C@H](C)CO)C(=O)c2cc(NC(=O)Nc3ccccc3)ccc2O1`: the cytotoxicity call in the assay with HSkMC is “inactive”. Also, the growth inhibition call with S. aureus RN4220 was “inactive”.

As for `COc1ccc([Si](C)(C)[C@@H]2[C@@H](CC(=O)N3Cc4ccccc4C[C@H]3CO)O[C@]3(C(=O)N(Cc4ccc(I)cc4)c4ccccc43)[C@H]2C)cc1`, in the assay on HSkMC, the cytotoxicity call is “inactive”. In addition, the growth inhibition call in the assay on S. aureus RN4220 was “inactive”.

With `CC(=O)Oc1cccc(O)c1`, in the assay with HSkMC, the cytotoxicity call is “inactive”. Further, the growth inhibition call in the assay on S. aureus RN4220 was “inactive”.

As for `C[C@@H]1CCCCO[C@H](CN(C)CC2CCCCC2)[C@@H](C)CN([C@H](C)CO)C(=O)c2cc(NS(=O)(=O)c3ccc(Cl)cc3)ccc2O1`, the cytotoxicity call in the assay on HSkMC was “inactive”. For the same compound, in the assay on S. aureus RN4220, the growth inhibition call is “inactive”.

Consider `C[C@@H]1CN([C@@H](C)CO)C(=O)c2cccc(NS(=O)(=O)c3cn(C)cn3)c2O[C@H]1CN(C)Cc1ccncc1`, for which, in the assay on HSkMC, the cytotoxicity call was “inactive”. Moreover, the growth inhibition call with S. aureus RN4220 is “inactive”.

Regarding `C[C@H](O)C#Cc1cnc2c(c1)C(=O)N([C@H](C)CO)C[C@@H](C)[C@H](CN(C)Cc1cncnc1)O2`, the cytotoxicity call in the assay on HSkMC is “inactive”. The growth inhibition call in the assay with S. aureus RN4220 is “inactive”.

Consider `Cc1nc2c(cc1C(=O)NN)c(=O)n(C)c(=O)n2C`, for which the cytotoxicity call in the assay with HSkMC is “inactive”. In addition, the growth inhibition call in the assay on S. aureus RN4220 was “inactive”.

Turning to `Cc1noc(C)c1S(=O)(=O)Nc1ccc2c(c1)CC(=O)N([C@H](C)CO)C[C@@H](C)[C@@H](CN(C)C(=O)Nc1ccccc1)O2`, the cytotoxicity call in the assay with HSkMC was “inactive”. Further, in the assay on S. aureus RN4220, the growth inhibition call was “inactive”.

With `CN1CCN(C(=O)C[C@@H]2C=C[C@@H](NC(=O)Cc3ccccn3)[C@H](CO)O2)CC1`, in the assay with HSkMC, the cytotoxicity call was “inactive”. For the same compound, the growth inhibition call with S. aureus RN4220 was “inactive”.

On to `C[C@@H]1CN([C@H](C)CO)C(=O)c2cccc(NC(=O)Nc3ccc(C(F)(F)F)cc3)c2O[C@@H]1CN(C)C(=O)Nc1ccc(C(F)(F)F)cc1`, for which the cytotoxicity call with HSkMC was “active”. Also, the growth inhibition call with S. aureus RN4220 was “inactive”.

Take `Cc1noc(C)c1NC(=O)N(C)C[C@@H]1Oc2ccc(NC(=O)Nc3ccc(C(F)(F)F)cc3)cc2CC(=O)N([C@H](C)CO)C[C@@H]1C`: the cytotoxicity call in the assay with HSkMC is “inactive”. Moreover, the growth inhibition call in the assay on S. aureus RN4220 is “inactive”.

In the case of `C[C@H]1CN([C@@H](C)CO)C(=O)c2cc(NS(=O)(=O)c3cccs3)ccc2O[C@H]1CN(C)S(=O)(=O)c1ccccc1`, the cytotoxicity call with HSkMC was “inactive”. Further, the growth inhibition call in the assay on S. aureus RN4220 was “inactive”.

As to `C[C@@H]1CN([C@H](C)CO)C(=O)c2cccc(NC(=O)c3ccncc3)c2O[C@H]1CN(C)Cc1ccc(C(=O)O)cc1`, the cytotoxicity call with HSkMC is “inactive”. The growth inhibition call in the assay with S. aureus RN4220 is “inactive”.

With `C[C@H]1CN([C@@H](C)CO)C(=O)c2c(c3ccccc3n2C)-c2ccccc2CO[C@@H]1CN(C)Cc1cccc(F)c1`, the cytotoxicity call in the assay on HSkMC was “inactive”. Besides, the growth inhibition call in the assay on S. aureus RN4220 was “inactive”.

On to `C[C@@H]1CN([C@H](C)CO)C(=O)c2cc(NC(=O)Cn3cnnn3)ccc2O[C@@H]1CN(C)C(=O)Nc1ccccc1`, for which, in the assay on HSkMC, the cytotoxicity call was “inactive”. In addition, the growth inhibition call with S. aureus RN4220 was “inactive”.

In the case of `C=CCC[C@H](Cc1ccc(F)cc1)C(=O)OC[C@@H]1CCCN1C(=O)[C@H](CC=C)CC(=O)N(CCO)Cc1ccccc1`, the cytotoxicity call in the assay with HSkMC is “inactive”. For the same compound, the growth inhibition call in the assay with S. aureus RN4220 is “inactive”.

On to `CO[C@@H]1CN(C)C(=O)c2ccc(NS(=O)(=O)CC(F)(F)F)cc2OC[C@@H](C)N(Cc2nccs2)C[C@H]1C`, for which the cytotoxicity call in the assay with HSkMC was “inactive”. Moreover, the growth inhibition call in the assay with S. aureus RN4220 was “inactive”.

With `O=C(C[C@@H]1C=C[C@H](NS(=O)(=O)c2ccccc2)[C@H](CO)O1)NCc1ccncn1`, the cytotoxicity call in the assay on HSkMC was “inactive”. Also, the growth inhibition call in the assay on S. aureus RN4220 was “inactive”.

As for `Cc1ccc(N2CC[C@@H](CN)C2)cc1`, the cytotoxicity call in the assay with HSkMC was “inactive”. In the assay on S. aureus RN4220, the growth inhibition call is “inactive”.

On to `C[C@@H]1CCCCO[C@H](CN(C)C(=O)Nc2ccc(C(F)(F)F)cc2)[C@@H](C)CN([C@@H](C)CO)C(=O)c2cc(NC(=O)Nc3ccc(C(F)(F)F)cc3)ccc2O1`, for which the cytotoxicity call in the assay on HSkMC was “inactive”. Further, the growth inhibition call in the assay with S. aureus RN4220 was “inactive”.

Consider `Cc1ccc(S(=O)(=O)N(C)C[C@H]2Oc3ccc(NC(=O)CCCN(C)C)cc3C(=O)N([C@H](C)CO)C[C@H]2C)cc1`, for which, in the assay with HSkMC, the cytotoxicity call is “inactive”. Moreover, the growth inhibition call in the assay on S. aureus RN4220 is “inactive”.

Consider `O=C(C[C@@H]1CC[C@@H]2[C@H](COC[C@@H](O)CN2C(=O)Nc2ccc(Cl)c(Cl)c2)O1)NCc1ccc(Cl)c(Cl)c1`, for which the cytotoxicity call in the assay on HSkMC is “inactive”. Also, in the assay with S. aureus RN4220, the growth inhibition call is “inactive”.

Take `C=CCNC(=O)[C@H]1[C@@H]2C(=O)O[C@@H](c3ccccc3)[C@@H](c3ccccc3)N2[C@@H](c2ccc(OCCO)cc2)[C@]12C(=O)N(C(=O)OCCOC)c1ccc(C#CC3(O)CCCCCC3)cc12`: the cytotoxicity call in the assay on HSkMC (human skeletal muscle cells) is “inactive”. Moreover, in the assay with S. aureus RN4220, the growth inhibition call is “inactive”.

`C[C@H](CO)N1C[C@H](C)[C@H](CN(C)S(=O)(=O)c2ccc3c(c2)OCCCO3)OCc2cnnn2CCCC1=O`: in the assay with HSkMC, the cytotoxicity call is “inactive”. Besides, in the assay on S. aureus RN4220, the growth inhibition call is “inactive”.

For the compound `C=C(/C=C\CNS(=O)(=O)c1ccc(C)cc1)[C@H](O)[C@H]1CCCN1S(=O)(=O)c1ccccc1[N+](=O)[O-]`, the cytotoxicity call in the assay with HSkMC is “inactive”. For the same compound, in the assay with S. aureus RN4220, the growth inhibition call was “inactive”.

Regarding `Cc1ccc(S(=O)(=O)N(C)C[C@@H]2Oc3c(NS(=O)(=O)c4cccs4)cccc3C(=O)N([C@@H](C)CO)C[C@H]2C)cc1`, in the assay with HSkMC, the cytotoxicity call is “inactive”. Moreover, in the assay on S. aureus RN4220, the growth inhibition call was “inactive”.

Consider `C[C@H]1CN([C@@H](C)CO)C(=O)c2cccc(NC(=O)Nc3ccc(F)cc3)c2O[C@@H]1CN(C)Cc1ccc(Cl)c(Cl)c1`, for which the cytotoxicity call with HSkMC was “active”. In addition, in the assay with S. aureus RN4220, the growth inhibition call is “inactive”.

With `C[C@@H]1CN([C@@H](C)CO)C(=O)c2cc(NC(=O)CCC(F)(F)F)ccc2O[C@@H](C)CCCCO[C@H]1CN(C)C(=O)Nc1ccc(C(F)(F)F)cc1`, the cytotoxicity call with HSkMC is “inactive”. In the assay on S. aureus RN4220, the growth inhibition call is “inactive”.

Turning to `COCC#Cc1cnc2c(c1)C(=O)N([C@H](C)CO)C[C@H](C)[C@@H](CN(C)C(=O)c1cnccn1)O2`, the cytotoxicity call in the assay with HSkMC was “inactive”. In addition, the growth inhibition call with S. aureus RN4220 is “inactive”.

The values are drawn from the antibiotic and cytotoxicity screens of Wong et al. (2023).
